Experimental findings from patent US7423058B2, “Inhibitors of hepatitis C virus NS3 protease” (Schering Corporation, priority 2004, dated 2008) are described below.

The first assay concerns the target Recombinant heterodimeric HCV NS3/NS4A protease (strain 1a) (Hepatitis C virus genotype 1a, UniProt P27958). Put plainly: Spectrophotometric assay for HCV protease inhibitory activity (chromogenic ester substrates). The format is biochemical. The following applies: Table 1: Ketones; read-out: Ki* Range.
For the compound `C=CCNC(=O)C(=O)C(CCC)NC(=O)[C@@H]1[C@@H]2[C@H](CN1C(=O)[C@@H](NC(=O)NC1(C(=O)c3ccccn3)CCCCC1)C(C)(C)C)C2(C)C` (stereo partly drawn) [compound 4205], the Ki is over 250 nM.

As for `CCCNC(=O)C(=O)C(CCC(F)(F)F)NC(=O)[C@@H]1[C@@H]2[C@H](CN1C(=O)[C@@H](NC(=O)N[C@H](C(=O)C1CC1)C1CCCCC1)C1CCCCC1)C2(C)C` (stereo partly drawn) [compound 4206], the inhibition constant (Ki) was over 250 nM.

Regarding `CCCC(NC(=O)[C@@H]1[C@@H]2[C@H](CN1C(=O)[C@@H](NC(=O)N[C@H](C(=O)C1CC1)C1CCCCC1)C(C)(C)C)C2(C)C)C(=O)C(=O)NCC(F)(F)F` (stereo partly drawn) [compound 4207], the inhibitory constant (Ki) is over 250 nM.

In the case of `C=CCNC(=O)C(=O)C(CCC)NC(=O)[C@@H]1[C@H]2CC(C)(C)O[C@H]2CN1C(=O)[C@@H](NC(=O)N[C@H](C(=O)c1nccs1)C(C)C)C1CCCCC1` (stereo partly drawn) [compound 4208], the Ki was over 250 nM.

For the compound `CC(C)[C@H](NC(=O)N[C@H](C(=O)N1CC2OC(C)(C)CC2[C@H]1C(=O)NC(CC1CCC1)C(=O)C(N)=O)C(C)C)C(=O)c1nccs1` (stereo partly drawn) [compound 4209], the Ki is over 250 nM.

Still in this assay, the particulars now being: Table 2: Oximes; read-out: Ki* Range.
For the compound `CO/N=C(\c1ccccc1)[C@@H](NC(=O)N[C@H](C(=O)N1C[C@H]2[C@@H]([C@H]1C(=O)NC(CC1CC1)C(=O)C(N)=O)C2(C)C)C(C)(C)C)C(C)C` (stereo partly drawn) [compound 4289], the Ki was under 75 nM.

With `CC(C)(C)[C@H](NC(=O)N[C@H](/C(=N/O)C1CC1)C1CCCCC1)C(=O)N1C[C@H]2[C@@H]([C@H]1C(=O)NC(CC1CC1)C(=O)C(N)=O)C2(C)C` (stereo partly drawn) [compound 4290], the Ki was under 75 nM.

As to `CC(C)[C@H](NC(=O)N[C@H](C(=O)N1C[C@H]2[C@@H]([C@H]1C(=O)NC(CC1CC1)C(=O)C(N)=O)C2(C)C)C(C)(C)C)/C(=N\O)C1CC1` (stereo partly drawn) [compound 4291], the Ki was 76 to 250 nM.

Take `CC(C)(C)[C@H](NC(=O)N[C@H](/C(=N/O)C1CC1)C1CCCCC1)C(=O)N1C[C@H]2[C@@H]([C@H]1C(=O)NC(CC1CC1)C(=O)C(N)=O)C2(C)C` (stereo partly drawn) [compound 4292]: the inhibition constant Ki lay in the range of 76 to 250 nM.

Regarding `CO/N=C(\C1CC1)[C@@H](NC(=O)N[C@H](C(=O)N1C[C@H]2[C@@H]([C@H]1C(=O)NC(CC1CC1)C(=O)C(N)=O)C2(C)C)C(C)(C)C)C(C)C` (stereo partly drawn) [compound 4293], the inhibition constant (Ki) was in the range of 76 to 250 nM.

Regarding `CO/N=C(/c1ccccc1)[C@@H](NC(=O)N[C@H](C(=O)N1C[C@H]2[C@@H]([C@H]1C(=O)NC(CC1CC1)C(=O)C(N)=O)C2(C)C)C(C)(C)C)C(C)C` (stereo partly drawn) [compound 4294], the Ki was in the range of 76 to 250 nM.

Take `C=CCNC(=O)C(=O)C(CCC)NC(=O)[C@@H]1[C@@H]2[C@H](CN1C(=O)[C@@H](NC(=O)N[C@H](/C(=N/OC)c1ccccc1)C(C)C)C(C)(C)C)C2(C)C` (stereo partly drawn) [compound 4296]: the Ki is 76 to 250 nM.

On to `CO/N=C(/C1CC1)[C@@H](NC(=O)N[C@H](C(=O)N1C[C@H]2[C@@H]([C@H]1C(=O)NC(CC1CC1)C(=O)C(N)=O)C2(C)C)C(C)(C)C)C1CCCCC1` (stereo partly drawn) [compound 4297], for which the inhibition constant Ki was 76 to 250 nM.

The assay is the same for the next values; noted with them: Table 3, Esters; read-out: Ki* Range.
As to `CC(C)(C)[C@H](NC(=O)N[C@H](C(=O)N1C[C@H]2[C@@H]([C@H]1C(=O)NC(CC1CCC1)C(=O)C(N)=O)C2(C)C)C1CCCCC1)C(=O)OCc1ccco1` (stereo partly drawn) [compound 4300], the inhibition constant Ki is under 75 nM.

With `CC(C)(C)[C@H](NC(=O)N[C@H](C(=O)N1C[C@H]2[C@@H]([C@H]1C(=O)NC(CC1CC1)C(=O)C(N)=O)C2(C)C)C(C)(C)C)C(=O)OCc1ccco1` (stereo partly drawn) [compound 4301], the Ki was under 75 nM.

For `CC(C)(C)OC(=O)[C@@H](NC(=O)N[C@H](C(=O)N1C[C@H]2[C@@H]([C@H]1C(=O)NC(CC1CC1)C(=O)C(N)=O)C2(C)C)C1(C)CCCC1)C(C)(C)C` (stereo partly drawn) [compound 4302], the Ki was under 75 nM.

In the case of `CC(C)[C@H](NC(=O)N[C@H](C(=O)N1C[C@H]2[C@@H]([C@H]1C(=O)NC(CC1CC1)C(=O)C(N)=O)C2(C)C)C(C)(C)C)C(=O)OC(C)(C)C` (stereo partly drawn) [compound 4303], the Ki was under 75 nM.

`CC(C)[C@H](NC(=O)N[C@H](C(=O)N1C[C@H]2[C@@H]([C@H]1C(=O)NC(CC1CC1)C(=O)C(N)=O)C2(C)C)C(C)(C)C)C(=O)OC(C1CC1)C1CC1` (stereo partly drawn) [compound 4305]: the Ki is under 75 nM.
